A number of entries come with more than one value. They are shown here; other results are not. There may be further records. Values given together appear to be repeats on other runs, samples or individuals.
Experiments:
[1] = biological target: Claudin 18.2 protein (CLDN18.2), expressed on cells (UniProt P56856); experiment: cell-based ELISA on MIA PaCa-2-CLDN18.2 cells; regression in GraphPad Prism (column labelled Kd, text says EC50)
[2] = biological target: Claudin 18.2 protein (CLDN18.2), expressed on cells (UniProt P56856); experiment: cell-based ELISA on SNU601 cells (CLDN18.2+); regression in GraphPad Prism (column labelled Kd, text says EC50)

Zolbetuximab (antibody-B)
Kd [1]: 0.045 µg/mL and 0.3 nM [lines of one column]
Kd [2]: 0.032 µg/mL and 0.213 nM [lines of one column]

Reference: patent US20240415975A1 (ABTIS, published 2024)
